Here are results for 23 compounds from publication PMC4336329 (PLoS ONE, 2015).

Each structure is given as a SMILES string. Out of some 310,000 compounds screened, about 2,200 (0.71%) showed an effect of 50% or more. The effect is printed as a negative number. The list shows a part of the results.

Chain of human ether-à-go-go-related gene (hERG) potassium channel (Q12809 whole entry, looked up): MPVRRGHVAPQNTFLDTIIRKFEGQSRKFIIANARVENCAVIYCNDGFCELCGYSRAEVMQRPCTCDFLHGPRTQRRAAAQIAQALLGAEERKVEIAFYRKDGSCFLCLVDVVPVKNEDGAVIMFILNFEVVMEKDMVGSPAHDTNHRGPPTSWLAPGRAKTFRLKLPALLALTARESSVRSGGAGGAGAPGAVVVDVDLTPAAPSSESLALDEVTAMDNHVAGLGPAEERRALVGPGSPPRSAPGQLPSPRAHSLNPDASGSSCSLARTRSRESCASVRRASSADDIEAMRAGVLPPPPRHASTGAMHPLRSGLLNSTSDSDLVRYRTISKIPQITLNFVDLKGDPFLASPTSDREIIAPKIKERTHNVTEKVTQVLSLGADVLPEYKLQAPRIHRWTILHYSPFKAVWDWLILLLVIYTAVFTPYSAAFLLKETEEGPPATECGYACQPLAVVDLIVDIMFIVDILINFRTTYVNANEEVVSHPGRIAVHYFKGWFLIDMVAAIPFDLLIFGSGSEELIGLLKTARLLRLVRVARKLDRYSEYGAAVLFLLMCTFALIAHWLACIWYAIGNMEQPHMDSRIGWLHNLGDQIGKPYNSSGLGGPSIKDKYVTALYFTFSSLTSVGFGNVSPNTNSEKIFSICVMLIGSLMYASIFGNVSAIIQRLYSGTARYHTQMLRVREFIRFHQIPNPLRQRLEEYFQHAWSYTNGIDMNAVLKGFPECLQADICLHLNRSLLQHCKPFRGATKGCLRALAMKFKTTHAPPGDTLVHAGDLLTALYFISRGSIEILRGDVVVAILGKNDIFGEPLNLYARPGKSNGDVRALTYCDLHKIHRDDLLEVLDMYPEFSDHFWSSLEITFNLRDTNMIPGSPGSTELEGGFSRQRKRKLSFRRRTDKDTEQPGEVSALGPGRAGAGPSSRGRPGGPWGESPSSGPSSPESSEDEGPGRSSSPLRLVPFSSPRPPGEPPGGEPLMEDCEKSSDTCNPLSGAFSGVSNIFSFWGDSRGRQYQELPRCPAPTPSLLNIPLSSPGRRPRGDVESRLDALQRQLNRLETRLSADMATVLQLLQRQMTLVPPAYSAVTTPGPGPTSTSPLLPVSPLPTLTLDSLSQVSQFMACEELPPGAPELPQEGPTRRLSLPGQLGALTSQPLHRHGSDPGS

This assay has as its target human ether-à-go-go-related gene (hERG) potassium channel (human, UniProt Q12809). Put plainly: primary screen, population patch clamp on CHO cells stably expressing hERG.
With `C[N+](C)(C)CCNC(=O)c1cc[n+](Cc2ccccc2)c(/C=N/O)c1.[I-]`, the “hERG current change (%, negative = inhibition) at 1uM” value was found to be 20.6%. In the case of `O=C(NN1C(=O)C2C3C=CC(O3)C2C1=O)c1ccncc1` (centres unmarked) it was 11.2%; in that of `COC(=O)c1c(C)[nH]c(C(=O)COC(=O)CCNS(=O)(=O)c2cccc(C(F)(F)F)c2)c1C`, -0.944%; in that of `COC(=O)c1cccc(NC(=O)c2ccc3c(c2)C(=O)N(Cc2cccnc2)C3=O)c1C`, 22.4%.

Regarding `CCC1Nc2ncnc(N3CCOCC3)c2N(Cc2ccc(C)cc2)C1=O.O=C(O)C(F)(F)F` (centres unmarked), the “hERG current change (%, negative = inhibition) at 1uM” value was found to be 8.63%.

For `O=C(c1cccc(Oc2ccc([N+](=O)[O-])cc2Cl)c1)N1CCCCC1`, the “hERG current change (%, negative = inhibition) at 1uM” value is on record as 9.05%. Take `CCOC(=O)N1CCC(NC(=O)C(CC(C)C)NC(=O)C2CCC(C)CC2)CC1` (centres unmarked): the “hERG current change (%, negative = inhibition) at 1uM” value came out at 12.7%.

For the compound `COCCNC(=O)c1cc2c(s1)-c1ccc(Cl)cc1SC2`, the “hERG current change (%, negative = inhibition) at 1uM” value was determined as 8.48%. For `CCOC(=O)C1CCCN(C(=O)CCNS(=O)(=O)c2ccc(Br)cc2)C1` (centres unmarked) the value was -4.26%; for `CCOC(=O)CCc1c(C)c2ccc(OCc3cc([N+](=O)[O-])ccc3OC)cc2oc1=O`, 9.23%; for `COc1cc(C(=O)NC2CCCC2)c(Br)c(OC)c1OC`, 9.37%. In the case of `Cc1ccccc1NC(=O)C(C)O/N=C/c1cccc([N+](=O)[O-])c1` (centres unmarked) it was 7.11%; in that of `CC(=O)Nc1ccc(-c2csc(NC(=O)Cc3cccc(F)c3)n2)cc1`, 5.22%; in that of `COc1ccc(/C=C/C(=O)Nc2cccc(F)c2)cc1S(=O)(=O)N1CCOCC1`, -17.1%.

For the compound `COC(=O)N/N=C(\C)c1ccc(C)c([N+](=O)[O-])c1`, the “hERG current change (%, negative = inhibition) at 1uM” value amounted to 13.5%. Regarding `CC(=O)Nc1ccc(CC#N)cc1`, the “hERG current change (%, negative = inhibition) at 1uM” value was 6.89%. Turning to `Cc1cc(C)c2cc(CN(Cc3nnnn3C3CCCCC3)CC3CCCO3)c(=O)[nH]c2c1` (centres unmarked), the “hERG current change (%, negative = inhibition) at 1uM” value is listed as -6.79%. For `CCN(CC)CCNC(=O)c1ccc(NC(=O)c2cccc(-n3cnnn3)c2)cc1`, the “hERG current change (%, negative = inhibition) at 1uM” value turned out to be 9.62%.

As for `Cc1c(NC(=S)N/N=C/C=C/c2ccc([N+](=O)[O-])cc2)c(=O)n(-c2ccccc2)n1C`, the “hERG current change (%, negative = inhibition) at 1uM” value is reported as 2.06%. On to `Cc1nc2ccccc2c(=O)n1N`, for which the “hERG current change (%, negative = inhibition) at 1uM” value came to 5.03%. Consider `CCC(=O)N1COC[C@@H]1Cc1ccccc1`, for which the “hERG current change (%, negative = inhibition) at 1uM” value was found to be 22.6%. In the case of `Cc1ccc(N(CC(=O)NCC(O)c2ccccc2)S(=O)(=O)c2ccc(C)cc2)cc1` (centres unmarked), the “hERG current change (%, negative = inhibition) at 1uM” value was -25%. `COC(=O)c1cc(C(=O)OCC(=O)NC2CCCC2)cc([N+](=O)[O-])c1`: the “hERG current change (%, negative = inhibition) at 1uM” value is listed as 9.87%.
